# The other results are listed elsewhere or left out. At the low end of the ranking, values are background and their order means little. Measured with an extract: partners may take part in the binding.
# Biological target: T1, HNF4alpha2 (COS-7 nuclear extract) (UniProt P41235)
# T1 sequence: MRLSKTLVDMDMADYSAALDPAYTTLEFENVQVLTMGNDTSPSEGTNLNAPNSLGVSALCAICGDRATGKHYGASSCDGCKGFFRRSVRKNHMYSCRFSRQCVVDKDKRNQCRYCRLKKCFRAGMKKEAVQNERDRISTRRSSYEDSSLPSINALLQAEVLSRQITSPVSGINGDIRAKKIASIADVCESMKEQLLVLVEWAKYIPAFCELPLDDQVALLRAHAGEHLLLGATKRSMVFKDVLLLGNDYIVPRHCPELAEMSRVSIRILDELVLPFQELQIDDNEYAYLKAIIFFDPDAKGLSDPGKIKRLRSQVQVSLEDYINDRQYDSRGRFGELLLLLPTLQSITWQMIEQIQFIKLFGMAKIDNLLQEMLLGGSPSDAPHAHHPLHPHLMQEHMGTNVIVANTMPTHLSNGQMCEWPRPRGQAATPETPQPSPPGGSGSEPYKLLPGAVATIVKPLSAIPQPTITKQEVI
# Test: protein-binding microarray
# Details: COS-7 nuclear extract on double-stranded Agilent 4x180k PBM; binding buffer, salt, pH and temperature not given; high values mean tight binding; double strand, one strand shown; sequences stand for … in …GCCTAGGGAGATTAGAGTATCGGTCGA
row,Sequence,binding signal (log2 normalized intensity)
1,CCTGGAGGGACTTTGTCCCACAGGAGAAGT,3.01
2,CCACGACAGAATTGACTCTTCGTTTTCTTT,1.38
3,AATGGGTCCGAAGGTCAGCTGACCAACAGA,4.28
4,ATTTGCAGCAAGGCCCAGGGCAAGGACTCT,-1.15
5,CGCGCGTGTGTGTGTGTGTGTGGTGTGTGT,3.49
6,AGCGTCAATGCCCCAGAAAGCCAGCAGGGG,-1.21
7,AGGCATGACAGAGTGTCCTGCCCCCTGGAG,3.9
8,GCTTGGGCGACGGACGCGCCGCGCCGGGGA,-1.3
9,TGACCTTTATCCAGTTCTGTGTACAAAGCC,2.38
10,GGCCTGGTGGCTCCCCCAGGCGACTGGGCC,-0.847
11,GATTACGATCCTGCCCTTCTGACCTCCCAG,3.96
12,GAAATGTAACCTTTGGCCAATTGCATTTTT,4.33
13,GTGGTTTCTTCCACTGGAGTCTTGTTTGTC,1.86
14,TTCAATAATACAAGAGGCTTCTTATCAGCA,-1.17
15,CCAATATAGCAAAGAGAGTCAAAGTTCAGG,2.89
16,TTGCACCAGTTTCTCAACAGACCCCTGAAT,2.27
17,CAGTAAGAGGATTTCTTCGCCACTTTCATC,-0.737
18,AACTTAGGCCCATATTCCTTAGATAAAAAG,-1.04
19,GACTGATATTCAAACAGGTCAAGCAATGCT,-1.23
20,GCAGGTGTGGGGGCGGCAGGAGCCACAAGC,-1.2

row,Sequence,binding signal (log2 normalized intensity)
1,ATCAGCAAGGTAAACATGATGAAAGCAATG,-1
2,AGGAGTTCAGCAGCATCTAAACTCTACTCA,-1.15
3,CTGAACAAACAGCTTCCAGAATAGCCTCTG,-1.18
4,AACCCCTCTCCAAGCCAGAAAGATGTTTGC,2.62
5,TGGTACAGGGCCCAGAAAAGTAGATTGTTA,-1.08
6,TTAAGTCCAGAAAAGACCAAAAAGGCTAAC,-1.2
7,CATGCCACAGCGCCCTCAGTGTTTTCACTG,-0.973
8,ATATATGTACAGCTGTGTATGTGGCAGGCA,1.49
9,GTCAGGAGACTGCTCGGCATCCCTGCCGTG,-1.21
10,GCAAAGTCCCTGGGGACAGGGATTAAGTAC,-1.04
11,GAAAAATGTACATGTGCAAAAGCACCCAAG,-1.03
12,AACATTGCATTCCTTTGTTTATCTAACCCA,0.703
13,AGTACCAGGTCAAAAGTTCAAACTTTATTT,3.13
14,TAGGATAAGGGTAGGGCCAATCTCTGGCAT,-1.01
15,CATTTTTCCCCTGACAAGTATCTCGGTCAA,1.22
16,AGAGGAGAAGCAAATGAAAAGAATATCTCA,-1.14
17,AGCTCCCATAGAGTCCACCACTGACCTTAG,3.37
18,AATGCCCAGGATTCCTTTTTCACTGCTCAC,-1.08
19,TCCCTATTGTTATCCAGGCCACGCTGCTAA,-1
20,ACGGGCTATTTGGACTAGGCAAAAGACAGT,0.282

# Reference: article PMC10726135
